According to PubChem BioAssay AID1508623 (National Center for Advancing Translational Sciences (NCATS), 2021):
Screen size: about 48,000 compounds; about 450 (0.94%) were called active. About 19% were inconclusive and are not listed. The call rests on the fitted dose curve; in most records, active means well fitted inhibition curve with a large enough effect; inconclusive means small, poorly fitted or top-dose-only effect; inactive means no such curve, though single readings can be large or run the other way. The list shows a part of the results.

Experiment: Primary qHTS for Identification of Small Molecule Inhibitors of Huntingtin Promoter Activity; further: nearly all actives have a fitted effect of over 50% in size
Conditions: HEK293 HTT promoter firefly luciferase reporter (activity 0% = vehicle and -100% = no light), 24 h; series mostly up to 57.5 µM; activity change, negative = inhibition: at the top concentration
Procedure, shortened: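 Quantitative HTS used concentration series of up to 57.5 uM final on HEK293 luciferase reporter cells, 24 h at 37 degrees C. Readout was Dual-Glo firefly luminescence.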
Potency means the concentration at half of the fitted maximal effect.

| Compound | activity change, negative = inhibition | Potency |
| --- | --- | --- |
| CCOC(=O)c1c(S(=O)(=O)N2CCCC(C(=O)NCc3ccc(Cl)cc3)C2)c(C)n(C)c1C (stereo unspecified) | inactive: -18.2% | – |
| COc1ccc(F)cc1S(=O)(=O)NCCc1csc2nc(-c3cccc(C)c3)nn12 | inactive: -5.72% | – |
| O=C(c1ccccc1Cl)N1c2ncnn2C2(CCCCC2)[C@@H]2CCCC[C@@H]21 | inactive: -36.9% | – |
| COC(=O)c1ccc(OCC2c3cc(OC)c(OC)cc3CCN2C(=O)COc2ccc(Cl)cc2)cc1 (stereo unspecified) | inactive: -26.1% | – |
| Cc1cccc(NC(=O)CCS(=O)(=O)c2ccc3c(c2)n(C)c(=O)c(=O)n3C)c1C | inactive: -0.551% | – |
| CCOC(=O)C1CCCN(C(=O)c2nn(-c3ccc(OC)cc3)c(=O)c3c2c2ccccc2n3C)C1 (stereo unspecified) | inactive: -10.9% | – |
| Nc1nc(Nc2ccccc2F)sc1C(=O)c1ccc(Cl)cc1 | inactive: 79.2% | – |
| Cc1ccc(-n2c(=O)c3c(C)c(C(=O)N(C)C)sc3n(CC(=O)C(C)(C)C)c2=O)cc1C | inactive: -0.893% | – |
| Cc1cc2c(cc1CC(=O)c1sccc1S(=O)(=O)Nc1onc(C)c1Cl)OCO2 | inactive: -1.02% | – |
| CCc1ccc(-n2nc(C)c3c(C)cc(=O)n(CC(=O)N4CCCc5ccccc54)c32)cc1 | inactive: -4.43% | – |
| O=c1cc(-c2ccccc2)n2c(SCc3ccccc3)nnc2[nH]1 | inactive: -6.47% | – |
| Cc1c(C(=O)N(Cc2ccccc2F)C2CCS(=O)(=O)C2)oc2ccc(F)cc12 (stereo unspecified) | inactive: -2.95% | – |
| COc1ccc(N2CC(NC(=O)COc3ccccc3)CC2=O)cc1OC (stereo unspecified) | inactive: -8.06% | – |
| Cn1c(=O)c2c(SCC(=O)NCc3ccco3)nc(-c3ccccc3)nc2n(C)c1=O | inactive: -2.91% | – |
| CCc1ccc(-n2nc3cc(C)c(NC(=O)c4cccc5ccccc45)cc3n2)cc1 | inactive: -5.27% | – |
| O=C(O)Cc1ccc(-c2ccccc2)cc1 | inactive: 11.2% | – |
| Cc1ccc(-n2nc(CO)c(C(=O)NCc3ccccn3)n2)cc1C | inactive: 2.45% | – |
| CC1CCn2c(nc3cc(C(=O)NCCc4ccc(Cl)cc4)ccc32)C1 (stereo unspecified) | inactive: -6.49% | – |
| CC(C)CN(CCCNC(=O)Cn1ncc2c3ccccc3n(C)c2c1=O)CC(C)C | inactive: -2.14% | – |
| CCOC(=O)c1ccc(NC(=O)Nc2c[nH]c(=O)[nH]c2=O)cc1 | inactive: 8.83% | – |
| Cc1cc(C)cc(NC(=O)CCS(=O)(=O)c2cc3c4c(c2)CCN4C(=O)CC3)c1 | inactive: -21% | – |
| O=C(NC1(C(F)(F)F)C(=O)Nc2c1c(=O)[nH]c(=O)n2CCc1ccccc1)c1ccc(Cl)cc1Cl (stereo unspecified) | inactive: -4.39% | – |
| CCOc1ccccc1NC(=O)C1CCCN(S(=O)(=O)c2c(C)[nH]c(=O)[nH]c2=O)C1 (stereo unspecified) | inactive: -6.79% | – |
| CCOc1ccc(/C=C(\C#N)c2nc3ccccc3c(=O)[nH]2)cc1OC | inactive: 4.98% | – |

| Compound | activity change, negative = inhibition | Potency |
| --- | --- | --- |
| O=C(CSc1nnc(-c2ccccc2)c(-c2ccccc2)n1)NC1CCCCC1 | inactive: -30.3% | – |
| Cc1ccc(N2CC(NC(=O)Cc3cccs3)CC2=O)cc1C (stereo unspecified) | inactive: -17.9% | – |
| CCOC(=O)N1CCc2c(sc(NCc3cccc(F)c3)c2C(=O)Nc2ccccc2OCC)C1 | inactive: -12.3% | – |
| Cc1nc(N2C(=O)c3oc4ccccc4c(=O)c3C2c2cccc(OCCC(C)C)c2)sc1C (stereo unspecified) | inactive: 12.9% [at 11.5 µM] | – |
| O=C(O)c1cn(-c2ccc(F)cc2)c2cc(N3CCNCC3)c(F)cc2c1=O | inactive | – |
| COC(=O)c1nnn(CC(=O)NC(=O)Nc2cccc(C)c2C)c1C(=O)OC | inactive: -25.3% | – |
| CCc1nc2ccc(C(=O)N3CCN(c4ccccc4)CC3)cc2nc1CC | inactive: -16.5% | – |
| CCC(=O)Nc1nnc(SCc2cc(=O)c3cc(C)ccc3[nH]2)s1 | inactive: -29.4% | – |
| CCOc1cc(-c2nnc(SCC(=O)Nc3ccc(F)c(F)c3)nc2-c2ccc(OC)c(OCC)c2)ccc1OC | inactive: 17.3% | – |
| Cc1c(C(=O)OC2CCCC2)[nH]c2c1C(=O)CC(c1ccc(Cl)cc1)C2 (stereo unspecified) | inactive: -2.48% | – |
| CC(=O)N1CCc2c(sc3c2c(=O)n(-c2ccccc2)c(=O)n3CC(=O)Nc2cccc(C)c2)C1 | inactive: -11.4% | – |
| CCOc1ccc(CNS(=O)(=O)c2c(C(=O)N3CCC(C)CC3)c(C)n(C)c2C)cc1OC | inactive: -6.9% | – |
| CC(C)N(C(=O)CSc1nc2ccc(Cl)cc2[nH]1)c1ccccc1 | inactive: -29.8% | – |
| COc1ccccc1CNC(=O)CCCc1nnc2n(CC(C)C)c(=O)c3sccc3n12 | inactive: -20.2% | – |
| COc1ccccc1CNC(=O)CCC1N=C2c3ccccc3N=C(SCc3cccc(Cl)c3)N2C1=O (stereo unspecified) | inactive: -18.5% | – |
| COc1ccc(-c2cc3nc(-c4ccc(C)cc4)cc(C(F)(F)F)n3n2)cc1 | inactive: -3.4% | – |
| CCc1ccccc1NC(=O)Cn1nc(C(F)(F)F)c2c1CCCC2 | inactive: -16.4% | – |
| Cc1cc(C)c(NC(=O)CCn2c(=O)c3cccn3c3cccnc32)c(C)c1 | inactive: 0.288% | – |
| OCCN1CCN(C(c2ccccc2Cl)c2sc3nc(-c4ccco4)nn3c2O)CC1 (stereo unspecified) | inactive: -14.3% | – |
| CCCS(=O)(=O)N1CC(=O)N(c2cc(C)ccc2C)C(C)(C(=O)NC2CCCCCC2)C1 (stereo unspecified) | inactive: -9.71% | – |
| Cc1cccc(N2CCn3c2nc2c3c(=O)n(CCc3ccccc3)c(=O)n2C)c1 | inactive: 5.92% | – |
| COc1cccc(-c2cn3c(n2)sc2cc(C(=O)NCCc4ccc(OC)c(OC)c4)ccc23)c1 | inactive: -30.4% | – |
| N#CC1=C(N)N(c2cccc(Cl)c2)C2=C(C(=O)CCC2)C1c1cc(CN2CCOCC2)cs1 (stereo unspecified) | inactive: -0.925% | – |
| CC(C)N1C(=O)C(O)(c2c[nH]c3ccccc23)c2ccccc21 (stereo unspecified) | inactive: -28.2% | – |

| Compound | activity change, negative = inhibition | Potency |
| --- | --- | --- |
| CSc1cccc(NC(=O)CN2CCN(Cc3ccccc3C)S2(=O)=O)c1 | inactive: -9.84% | – |
| Cc1cc(C)cc(Oc2coc3cc(OCC(=O)NC4CCCCC4)ccc3c2=O)c1 | inactive: -10.5% | – |
| Cc1cc(N)c(-n2cc3c(c2-c2ccc(Br)cc2)c(=O)n(C)c(=O)n3C)cc1C | inactive: -4.23% | – |
| CCOc1ccc(OCC)c(NC(=O)CC(C)n2nc(C)cc2C)c1 (stereo unspecified) | inactive: -3.58% | – |
| CCOc1ccc(-c2cc(C(=O)Nc3ccc(NC(C)=O)cc3)no2)cc1 | inactive: 4.46% | – |
| Cc1ccc2onc(CNC(=O)NCc3cccc(Cl)c3)c2c1 | inactive: -23.4% | – |
| CCOc1ccc(NC(=O)CC2C(=O)N(c3ccc(C)cc3)C(=O)N2CCC2=CCCCC2)cc1 (stereo unspecified) | inactive: -25.9% | – |
| Nc1nonc1-c1nc2ccccc2n1Cc1cccc(Cl)c1 | inactive: -13.5% | – |
| CC(C)c1ccc(NC(=O)c2ccc(F)c(S(=O)(=O)N3CCc4ccccc4C3)c2)cc1 | – | active: 11.2 µM |
| O=C(c1cccn2c(=O)c3cc(Cl)ccc3nc12)N1CCN(c2ccccc2F)CC1 | inactive: 0% | – |
| CCOc1ccc(-n2nc(CO)c(C(=O)NCCCc3ccccc3)n2)cc1 | inactive: -19.1% | – |
| COc1ccc(Cl)cc1NC(=O)Cn1cc(C(=O)c2ccc(C)cc2)c(=O)c2ccc(C)nc21 | inactive: -0.506% | – |
| CCOC(=O)c1ccccc1NC(=O)CSc1nc(=O)[nH]c2c1CCC2 | inactive: -11.9% | – |
| COc1ccc(CCNC(=O)c2c(O)nc3ccccn3c2=O)cc1 | inactive: 1.36% | – |
| Cc1ccccc1CN1C(=O)C2(c3ccccc31)N(c1ccccc1)C(=O)CS2(=O)=O (stereo unspecified) | inactive: -6.07% | – |
| C=Cc1ccc(Cn2c(C)c(CNCCc3ccccc3C)c(C(=O)O)c2C)cc1 | inactive: -30.8% | – |
| Cc1ccn2c(=O)c(C(=O)NCCCN3CCCCC3C)c(O)nc2c1 (stereo unspecified) | inactive: -2.24% | – |
| COc1ccc2oc(=O)c(C(=O)Nc3ccc(C(=O)O)cc3)cc2c1 | inactive: 20.7% | – |
| C=CCc1cccc2cc(C(=O)Nc3ccc(F)cc3)c(=O)oc12 | inactive: 13.1% | – |
| Nc1ccc(S(=O)(=O)Nc2ccc(Cl)nn2)cc1 | inactive: 1.06% | – |
| COc1ccc(OCC(=O)Nc2nnc3n2CCS3)cc1 | inactive: -3.9% | – |
| C=CC[N+]1([C@H]2C[C@H]3[C@@H]4CC[C@H]5C[C@H](O)[C@@H](N6CCOCC6)C[C@]5(C)[C@@H]4CC[C@]3(C)[C@H]2OC(C)=O)CCCC1 | inactive: -1.69% | – |
| Cc1ccc(NC(=O)C(C)n2nnc3sc4c(c3c2=O)CCCC4)cc1Cl (stereo unspecified) | inactive: 12.1% | – |
| Cc1c(Cl)cccc1NC(=O)c1ncoc1-c1ccco1 | inactive: 24.6% | – |

| Compound | activity change, negative = inhibition | Potency |
| --- | --- | --- |
| CCc1ccc(NC(=O)CSc2nc3ccccc3c(=O)n2CCNC(C)=O)cc1 | inactive: 16.2% | – |
| Cc1ccc(C(C)(O)c2nc3ccccc3s2)c(C)c1 (stereo unspecified) | inactive: -7.92% | – |
| CCOC(=O)c1c(C)[nH]c(CCC(=O)NCc2ccccc2Cl)c1C | inactive: -28.3% | – |
| COc1ccccc1NC(=O)CCN1CCCCC1 | inactive: -9.21% | – |
| CCOc1ccc(OCC)c(NC(=O)C2CCN(c3nnc(-n4cccc4)s3)CC2)c1 | inactive: -10% | – |
| Cc1nc(-c2ccccc2)sc1CCNC(=O)C(=O)Nc1ccc2c(c1)OCO2 | inactive: -6.54% | – |
| COc1cccc(OCCSc2nc(C)c(Cc3ccccc3)c(=O)[nH]2)c1 | inactive: -18.4% | – |
| Cc1ccc(N(C)C(=O)C2CCN(S(=O)(=O)c3c(C)noc3/C=C/c3c(C)cc(C)cc3C)CC2)cc1 | inactive: -15.2% | – |
| O=P(O)(O)OCC(O)CO (stereo unspecified) | inactive: -0.688% | – |
| Cc1cccc(N2CCN(S(=O)(=O)c3ccc4[nH]c5c(c4c3)CCCCC5)CC2)c1C | inactive: 7.91% | – |
| Cc1cccc(C(=O)NCC(=O)OCc2cc(=O)n3nc(C4CCCCC4)sc3n2)c1 | inactive: -16.1% | – |
| COc1ccccc1C(=O)Nc1cc2c(cc1N1CCCC1)n(C)c(=O)c(=O)n2C | inactive: -6.93% | – |
| COc1cccc(NC(=O)C2=C(C)C(=O)OC23CCN(C(C)=O)CC3)c1 | inactive: -1.01% | – |
| CCN(CC)C(=O)Cn1nnc2sc(-c3ccccc3)cc2c1=O | inactive: 0% | – |
| COc1cc2c(cc1OC)C(COc1ccc3c(C)cc(=O)oc3c1)N(C(=O)c1cc(Cl)ccc1OC)CC2 (stereo unspecified) | inactive: -6.27% | – |
| Cc1ccc(CN2CCSc3ccc(C(=O)NCC(C)c4ccccc4)cc32)cc1 (stereo unspecified) | inactive: 10.3% | – |
| CCCOc1ccc(CNC(=O)c2ccc(-n3c(C)cc4c3CCC(C)C4)cc2)cc1 (stereo unspecified) | inactive: -10.5% | – |
| CCN(C(=O)CSc1nc2ccccc2[nH]1)c1ccccc1 | inactive: -12.4% | – |
| Cc1ccc(NC(=O)Cn2ccn(-c3ccccc3)c(=O)c2=O)cc1 | inactive: -5.69% | – |
| Cc1ccc(Cn2cc(S(=O)(=O)c3cccc(Cl)c3)c(=O)c3cc(F)c(N4CCOCC4)cc32)cc1 | inactive: -7.23% | – |
| CCOc1ccc(C2NC(=O)c3c(COC)cc(C)nc3N2Cc2ccccc2)cc1OC (stereo unspecified) | inactive: -5.16% | – |
| Cc1ccc(C)c(N2CCN(C(=O)c3ccc4c(c3)N(Cc3ccc(F)cc3)C(=O)c3ccccc3S4=O)CC2)c1 (stereo unspecified) | inactive: -5.01% | – |
| CC1CCC(Nc2nc3c(-c4cccc(C(F)(F)F)c4)nnn3c3ccccc23)CC1 (stereo unspecified) | inactive: -14.4% | – |
| COc1cc(OC)c(NC(=O)CCc2c(C)nc3cc(-c4ccccc4OC)nn3c2C)cc1Cl | inactive: -32.1% | – |
